Source: patent publication US20240269278A1, “ANTI-CD47 ANTIBODY FOR COMBINED TREATMENT OF BLOOD TUMOR” (Nanjing Shunxin Pharmaceuticals Co., Ltd. of Chiatai …, priority 2021, published 2024)

Key:
[1] = test system: human B-cell lymphoma Daudi; experiment: Subcutaneous mouse xenograft tumor of Daudi; assay type: in vivo, NOD-SCID mice; conditions: IV D0, 3, hz14A9-2.3 1.5 mg/kg, Rituximab 3 mg/kg
Description: The experimental animals were NOD-SCID mice (5-6 weeks old, male) purchased from Shanghai Lingchang Biotechnology Co., Ltd., with the production license number of SCXK (Hu) 2018-0003 and the animal certification number of 20180003014870. The housing environment was in a SPF grade. Human B-cell lymphoma Daudi cells were purchased from Cell Bank of the Chinese Academy of Sciences. Daudi cells were cultured in an incubator at 37° C. with 5% CO2 in air. Subculturing was performed twice a week, and when the cells were in a logarithmic growth phase, the cells were collected, counted, and inoculated. 1×10^7 Daudi cells were inoculated to each mouse subcutaneously, and when tumors reached the volume of about 100 mm^3, the mice were divided into groups and injected with drugs intravenously (IV) once every 3 days (Q3D) for a total of 2 times at the injection volume of 0.1 mL/10 g of body weight.
(§1) The experimental index was to investigate the effects of the drugs on the tumor growth, and the specific index was T/C % or the tumor growth inhibition rate (TGI %, tumor growth inhibition).
(§2) Tumor diameters were measured twice a week with a vernier caliper and tumor volume (V) was calculated according to the following formula: […]
(§3) where a and b represent length and width, respectively.
(§4) T/C (%)=(T−T0)/(C−C0)×100,
(§5) where T and C are the tumor volumes of animals at the end of the experiment in the test group and the negative control group, respectively; T0 and C0 are the tumor volumes of animals at the beginning of the experiment in the test group and the negative control group, respectively.
(§6) If the volume of tumor shrinks compared with its initial volume, i.e., T<T0 […], it is defined as partial regression (PR) of tumor; if the tumor completely disappears, it is defined as complete regression (CR) of tumor.
At the end of the experiment (D24), the animals were sacrificed by CO2 anesthesia and dissected to give the tumors. The tumors were photographed.

HL60 cells = experiment: Promotion of macrophage phagocytosis of tumor cells (flow cytometry); assay type: cell-based, human; conditions: for rate of phagocytosis: CFSE-labeled HL60 cells, human macrophages
Method in brief: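 Human blood monocytes differentiated into macrophages with 100 ng/mL M-CSF for 7 days. CFSE-labelled HL60 cells preincubated 1-2 h at 37 °C with anti-CD47 antibodies at 10 or 1 μg/mL, then co-cultured with macrophages 2-4 h. Macrophages stained for CD14/CD11b; phagocytosis rate (%) measured by flow cytometry.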

[2] = Thermostability assay based on Nano DSF (Prometheus NT.48); assay type: physicochemical
Description: The high-throughput protein stability analyzer Prometheus NT.48 is an instrument for acquiring various types of data such as protein molecular structure stability, aggregation stability, and colloid dispersion stability. The melting temperatures (Tm) and the aggregation temperatures (Tagg) of the anti-CD47 chimeric antibodies and the anti-CD47 humanized antibodies were determined using this instrument.

[3] = Toxicity assay in single administration; assay type: in vivo, B-hCD47 mice
Source text: Since CD47 is expressed on red cells and plays a role in clearing aged red cells, the toxic effects of the anti-CD47 antibodies in B-hCD47 mice were compared.

Raji cells = experiment: Hematologic tumor mouse model of lymphoma Raji cells, survival; assay type: in vivo, NOD/SCID mice; conditions: 10 mg/kg intraperitoneal, 21 consecutive days
Description: A hematologic tumor mouse model was established using hematologic tumor Raji cells. The anti-CD47 antibodies were applied to the model for the evaluation of the pharmacodynamic activity.
A suspension of Raji cells in a PBS buffer was prepared at a concentration of 5×10^6 cells/mL, and was injected into female NOD/SCID mice via the tail vein at 0.1 mL/mouse. […] The administration was performed by intraperitoneal injection in doses of 10 mg/kg for 21 consecutive days. The survival time of the animals was observed.

[4] = test system: human acute myeloblastic leukemia MOLM-16; experiment: Subcutaneous mouse xenograft tumor of MOLM-16; assay type: in vivo
Description: The experimental animals were NOD-SCID mice (5-6 weeks old, female) purchased from Beijing Huafukang Biotechnology Co., Ltd., with the production license number of SCXK (Jing) 2019-0008 and the animal certification number of 110322211100910838. The housing environment was in a SPF grade. Human acute myelocytic leukemia MOLM-16 cells were purchased from DSMZ. MOLM-16 cells were cultured in an incubator at 37° C. with 5% CO2 in air. Subculturing was performed twice a week, and when the cells were in a logarithmic growth phase, the cells were collected, counted, and inoculated. 1×10^7 MOLM-16 cells were inoculated to each mouse subcutaneously, and when tumors reached the volume of 100-150 mm^3, the mice were divided into groups and injected with drugs intravenously (IV) at the administration volume of 0.1 mL/10 g of body weight.
as §1, §2, §3, §4, §5, §6
At the end of the experiment, the animals were sacrificed by CO2 anesthesia and dissected to give the tumors. The tumors were photographed.

[5] = 2 days after administration, single 10 mpk via tail vein
[6] = 4 days after administration, single 10 mpk via tail vein
[7] = 7 days after administration, single 10 mpk via tail vein
[8] = 10 days after administration, single 10 mpk via tail vein
[9] = 14 days after administration, single 10 mpk via tail vein
[10] = day 0, single 10 mpk via tail vein
[11] = hz14A9-2.3 0.5/1.5 mg/kg IV D0, 3, 6, 10

| Molecule | rate of phagocytosis (HL60 cells; 1 μg/mL antibody) [%] | rate of phagocytosis (HL60 cells; 10 μg/mL antibody) [%] | Tagg (aggregation temperature) [2] [°C] | Tm (melting temperature) [2] [°C] | Rate of change in HGB level (vs before administration) [3, 5] [%] | Rate of change in RBC (vs before administration) [3, 5] [%] | Rate of change in body weight (vs before administration) [3, 5] [%] | Rate of change in HGB level (vs before administration) [3, 6] [%] | Rate of change in RBC (vs before administration) [3, 6] [%] | Rate of change in body weight (vs before administration) [3, 6] [%] | Rate of change in HGB level (vs before administration) [3, 7] [%] | Rate of change in RBC (vs before administration) [3, 7] [%] | Rate of change in body weight (vs before administration) [3, 7] [%] | Rate of change in HGB level (vs before administration) [3, 8] [%] | Rate of change in RBC (vs before administration) [3, 8] [%] | Rate of change in body weight (vs before administration) [3, 8] [%] | Rate of change in HGB level (vs before administration) [3, 9] [%] | Rate of change in RBC (vs before administration) [3, 9] [%] | Rate of change in body weight (vs before administration) [3, 9] [%] | Rate of change in HGB level (vs before administration) [3, 10] [%] | also measured |
| --- | --- | --- | --- | --- | --- | --- | --- | --- | --- | --- | --- | --- | --- | --- | --- | --- | --- | --- | --- | --- | --- |
| hz14A9-2.3: humanized anti-CD47 antibody, heavy chain SEQ ID NO: 181, light chain SEQ ID NO: 183 (antibody, heavy chain; light chain) heavy: QVQLVQSGAEVKKPGASVKVSCKVSGFNIEDDYIEWVRQAPGQGLEWMGRIDPANDKTKYAQKFQGRVTMTGDTSTNTVYMELSSLRSEDTAVYYCARPGLRRYYSMDYWGQGTLVTVSSASTKGPSVFPLAPCSRSTSESTAALGCLVKDYFPEPVTVSWNSGALTSGVHTFPAVLQSSGLYSLSSVVTVPSSSLGTKTYTCNVDHKPSNTKVDKRV[omitted - human IgG4 Fc with S228P (EU numbers)] light: DIQMTQSPSSLSASVGDRVTITCKASENVVSYVSWYQQKPGKAPKLLIYGASNRYTGVPSRFIGSGSSTDFTLTISSLQPEDFATYYCGQSYSYPLTFGQGTKLEIKRTVAAPSVFIFPPSDEQLKSGTASVVCLLNNFYPREAKVQWKVDNALQSGNSQESVTEQDSKDSTYSLSSTLTLSKADYEKHKVYACEVTHQGLSSPVTKSFNRGEC | 71.48 | 74.93 | 73.42 | 68.10 | −13.3 | −13.6 | 2.3 | −18.5 | −16.7 | 6.3 | −9.9 | −9.8 | 2.0 | −10.0 | −8.5 | 5.9 | −3.9 | −2.2 | 8.6 | 0.0 | T/C(%) D24 [1]: 30%; Tumor growth inhibition (%) D24 [1]: 70%; Partial regression (number of tumors) ([1]; hIgG4 4.5 mg/kg, 6 mice per group (hIgG4 10)): 0; promotion of phagocytosis (in words) (HL60 cells; 10 and 1 μg/mL): better performance; Rate of change in RBC (vs before administration) [3, 10]: 0.0%; Rate of change in body weight (vs before administration) [3, 10]: 0.0%; course of body weight after administration (in words) ([3]; mouse, in vivo, 10 mg/kg): continuous increase in body weight; time after administration at which RBC and HGB levels were substantially normalized ([3]; mouse, in vivo, 10 mg/kg): 7 days; toxicity (in words) ([3]; single 10 mg/kg via tail vein): no significant toxicity; anti-tumor activity (in words) (Raji cells): showed anti-tumor activity; day on which all the animals in the group died (Raji cells): 34 days; median survival time (Raji cells): 28.5 days; T/C(%) D12 [4, 11]: 89%; Tumor growth inhibition (%) D12 [4, 11]: 11%; toxicity when combined with azacitadine, by body weight of the mice (in words) ([4]; hz14A9-2.3 added to azacitadine): did not significantly increase toxicity |
| hz3F10-6.1: humanized anti-CD47 antibody, heavy chain SEQ ID NO: 129, light chain SEQ ID NO: 131 (antibody, heavy chain; light chain) heavy: QVQLVQSGAEVKKPGSSVKVSCKASGYTFSRYWIEWVRQAPGQGLEWMGEFIPGSDTTNYAQKFQGRVTITADISTSTAYMELSSLRSEDTAVYYCARGGLRRMDYWGQGTLVTVSSASTKGPSVFPLAPCSRSTSESTAALGCLVKDYFPEPVTVSWNSGALTSGVHTFPAVLQSSGLYSLSSVVTVPSSSLGTKTYTCNVDHKPSNTKVDKRV[omitted - human IgG4 Fc with S228P (EU numbers)] light: DIQMTQSPSSLSASVGDRVTITCRASSSVSSTYLHWYQQKPGKAPKLWIYTTSTLASGVPSRFSGSGSGTSYTLTISSLQPEDFATYYCQQFSESTWTFGQGTKLEIKRTVAAPSVFIFPPSDEQLKSGTASVVCLLNNFYPREAKVQWKVDNALQSGNSQESVTEQDSKDSTYSLSSTLTLSKADYEKHKVYACEVTHQGLSSPVTKSFNRGEC | 47.57 | 60.91 | 68.6 | 68.6 | −57.1 | −56.7 | −13.0 | −74.7 | −75.6 | −15.8 | −39.2 | −38.7 | −2.5 | −6.0 | −6.6 | −8.4 | −3.0 | −2.0 | 8.2 | 0.0 | Rate of change in RBC (vs before administration) [3, 10]: 0.0%; Rate of change in body weight (vs before administration) [3, 10]: 0.0%; course of body weight after administration (in words) ([3]; mouse, in vivo, 10 mg/kg): a decrease in body weight first and then an increase; anti-tumor activity (in words) (Raji cells): showed anti-tumor activity; day on which all the animals in the group died (Raji cells): 21 days; median survival time (Raji cells): 17.5 days |
